Laboratory results: paper PMC9866728, “Dosing Methods to Enable Cell-Based In Vitro Testing of Complex Substances: A Case Study with a PAH Mixture” (Toxics, 2022)

Conditions: STOCK_10_R1-R3 (replicates) of the block 10 ug/mL MAF, 24 hr exposure; raw GC-MS/MS analyte/ISTD response ratio
In the case of c1ccc2c(c1)-c1ccc3ccc4cccc5cc-2c1c3c45 [Indeno[1,2,3-cd]pyrene], the “ISTD Resp. Ratio, stock” value is reported as 389.481.
In the case of Cc1ccc2ccccc2c1 [2-Methylnaphthalene], the “ISTD Resp. Ratio, stock” value is reported as 233.459.
With c1ccc2c(c1)ccc1cc3c(ccc4ccccc43)cc12 [Dibenzo[a,h]anthracene] the “ISTD Resp. Ratio, stock” value was 175.615.
In the case of c1cc2ccc3cccc4ccc(c1)c2c34 [Pyrene], the “ISTD Resp. Ratio, stock” value is reported as 504.073.
In the case of c1cc2cccc3c4cccc5cccc(c(c1)c23)c54 [Perylene], the “ISTD Resp. Ratio, stock” value is reported as 908.239.
With c1ccc2cc3ccccc3cc2c1 [Anthracene] the “ISTD Resp. Ratio, stock” value was 241.043.
With c1cc2ccc3ccc4ccc5cccc6c(c1)c2c3c4c56 [Benzo[g,h,i]perylene] the “ISTD Resp. Ratio, stock” value was 426.016.
In the case of Cc1cccc2ccccc12 [1-Methylnaphthalene], the “ISTD Resp. Ratio, stock” value is reported as 233.459.
In the case of c1ccc2c(c1)ccc1c3ccccc3ccc21 [Chrysene], the “ISTD Resp. Ratio, stock” value is reported as 487.585.
With c1ccc2c(c1)-c1cccc3c1c-2cc1ccccc13 [Benzo[b]fluoranthene] the “ISTD Resp. Ratio, stock” value was 814.16.
